# The list shows a part of the results. The full chains were built here from the parent and the listed change. Values near 0.05 are background.
# B1: TEV protease; numbered along this chain (parent)
# chain: MGESLFKGPRDYNPISSSICHLTNESDGHTTSLYGIGFGPFIITNKHLFRRNNGTLVVQSLHGVFKVKDTTTLQQHLVDGRDMIIIRMPKDFPPFPQKLKFREPQREERICLVTTNFQTKSMSSMVSDTSCTFPSGDGIFWKHWIQTKDGQCGSPLVSTRDGFIVGIHSASNFTNTNNYFTSVPKNFMELLTNQEAQQWVSGWRLNADSVLWGGHKVFMVKPEEPFQPVKEATQL
# Variants of: B1
# Experiment: raw area under fraction-flipped curve 0-4 h after induction (AUC4h, not background-subtracted), DNA-recorder readout of cleavage of the substrate (dimensionless); higher = more cleavage of the substrate by the protease variant
# Settings: temperature: 34 °C; time window: 0-4 h after rhamnose induction
# Description: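 In vivo DNA recorder in E. coli TOP10(DE3) ΔrhaA at 34 °C. Each TEVp single-site mutant (parent TEVp 0) is paired with a single-site variant of the 7-mer TEVs (canonical ENLYFQ|S). The substrate sits between flexible linkers in a Bxb1-sfGFP-TEVs-SsrA fusion, so cleavage stabilises Bxb1 and speeds flipping of a recombination array, read by NGS. The value is the raw area under the fraction-flipped curve over 0-4 h after rhamnose induction (AUC4h), with ≥20 reads per time point. It is not background-subtracted; inactive controls average about 0.047.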
# 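Note: Bxb1 expression induced with 0.2% (w/v) L-rhamnose at OD600 near 0.5, cultures sampled hourly, flipped fraction per protease–substrate barcode pair counted by paired-end Illumina sequencing.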
Variant,area with substrate ENLYCQS,area with substrate ENLYEQS,area with substrate ENLYGQS,area with substrate ENLYHQS,area with substrate ENLYIQS,area with substrate ENLYLQS,area with substrate ENLYPQS,area with substrate ENLYQQS,area with substrate ENLYSQS,area with substrate ENLYWQS,area with substrate ENLYDQS,area with substrate ENLYKQS,area with substrate ENLYMQS,area with substrate ENLYNQS,area with substrate ENLYRQS,area with substrate ENLYTQS,area with substrate ENLYVQS,area with substrate ENLYYQS
MGESLFKGPRDYNPISSSICHLTNESDGHTTSLYGIGFGPFIITNKHLFRRNNGTLVVQSLHGVFKVKDTTTLQQHLVDGRDMIIIRMPKDFPPFPQKLKFREPQREERICLVTTNFQTKSMSSMVSDTSCQFPSGDGIFWKHWIQTKDGQCGSPLVSTRDGFIVGIHSASNFTNTNNYFTSVPKNFMELLTNQEAQQWVSGWRLNADSVLWGGHKVFMVKPEEPFQPVKEATQL [T132Q],0.0709,0.0233,0.0523,0.0532,0.0855,0.0726,0.0529,0.076,0.0743,0.0738,–,–,–,–,–,–,–,–
MGESLFKGPRDYNPISSSICHLTNESDGHTTSLYGIGFGPFIITNKHLFRRNNGTLVVQSLHGVFKVKDTTTLQQHLVDGRDMIIIRMPKDFPPFPQKLKFREPQREERICLVTTNFQTKSMSSMVSDTSCTFPSGDGIFWKHWIQTKDGQCGSPLVSTRDGFIVGIHSASNFTNTNNYFTSVPKNFMELGTNQEAQQWVSGWRLNADSVLWGGHKVFMVKPEEPFQPVKEATQL [L191G],0.0682,0.0642,0.0506,0.0594,0.0667,–,–,0.0574,–,0.0631,0.0359,0.0418,0.051,0.0549,0.046,0.0525,0.0496,0.0701
MGESLFKGPRDYNPISSSICHLTNESDGHTTSLYGIGFGPFIITNKHLFRFNNGTLVVQSLHGVFKVKDTTTLQQHLVDGRDMIIIRMPKDFPPFPQKLKFREPQREERICLVTTNFQTKSMSSMVSDTSCTFPSGDGIFWKHWIQTKDGQCGSPLVSTRDGFIVGIHSASNFTNTNNYFTSVPKNFMELLTNQEAQQWVSGWRLNADSVLWGGHKVFMVKPEEPFQPVKEATQL [R51F],0.0966,0.0681,0.0861,0.0739,0.163,–,0.0601,–,0.0712,0.119,0.0714,0.0413,0.0763,0.0681,0.064,–,0.129,0.0735
MGESLFKGPRDYNPISSSICHLTNESDGHTTSLYGIGFGPFIITNKHLFRRNNGTLVVQSLHHVFKVKDTTTLQQHLVDGRDMIIIRMPKDFPPFPQKLKFREPQREERICLVTTNFQTKSMSSMVSDTSCTFPSGDGIFWKHWIQTKDGQCGSPLVSTRDGFIVGIHSASNFTNTNNYFTSVPKNFMELLTNQEAQQWVSGWRLNADSVLWGGHKVFMVKPEEPFQPVKEATQL [G63H],0.0846,0.0553,0.0697,0.0709,0.131,–,0.0598,–,–,–,0.062,0.0916,0.0744,0.0655,0.0602,0.0756,–,0.0597
MGESLFKGPRDYNPISSSICHLTNESDGHTTSLYGIGFGPFIITNKHLFRRNNGTLVVQSLHGVFKVKDTTTLQQHLVDGRDMIIIRMPKDFPPFPQKLKFREPQREERICLVTTNFQTKSMSSMVSDTSCTFPSGDGIFWKHWIQTKDGQCGSPLVSTRDGFIVGIHSAVNFTNTNNYFTSVPKNFMELLTNQEAQQWVSGWRLNADSVLWGGHKVFMVKPEEPFQPVKEATQL [S171V],0.0951,0.0691,–,0.0701,0.08,–,0.0639,–,0.0926,0.0407,–,0.0679,0.0152,0.0337,0.0635,–,0.0522,0.0555
MGESLFKGPRDYYPISSSICHLTNESDGHTTSLYGIGFGPFIITNKHLFRRNNGTLVVQSLHGVFKVKDTTTLQQHLVDGRDMIIIRMPKDFPPFPQKLKFREPQREERICLVTTNFQTKSMSSMVSDTSCTFPSGDGIFWKHWIQTKDGQCGSPLVSTRDGFIVGIHSASNFTNTNNYFTSVPKNFMELLTNQEAQQWVSGWRLNADSVLWGGHKVFMVKPEEPFQPVKEATQL [N13Y],0.0811,0.0758,0.0604,0.0444,0.137,0.0744,0.0788,–,0.0746,0.0565,0.0366,0.08,0.0628,–,0.0737,–,–,0.0638
MGESLFKGPRDYNPISSSICHLTNESDGHTTSLYGIGFGPFIITNKHLFRRNNGTLVVQSLHGVFKVKDTTTLQQHLVDGRDMIIIRMPKDFPPFPQKLKFREPQREERICLVTTNFQTKSMSSMVSDTSCTFPSGDGIFWKHWIQTKDGQCGSPLVSTRDGFIVGIHSASNFTNTNNYFTSVPKNFMELLTNQEAQQWVSGWRLNADSVLWGGHKVFMDKPEEPFQPVKEATQL [V220D],0.0968,–,0.0604,0.0719,0.133,–,–,0.0613,–,0.13,0.0644,0.0634,0.0867,0.0727,–,0.0854,–,0.0712
MGESLFKGPRDYNPISSSICHLTNESDGHTTSLYGIGFGPFIITNKHLFRRNNGTLVVQSLHGVFKVKDTTTLQQHLVDGRDMIIIRMPKDFPPFPQKLKFREPQREERICLVTTNFQTKSMSIMVSDTSCTFPSGDGIFWKHWIQTKDGQCGSPLVSTRDGFIVGIHSASNFTNTNNYFTSVPKNFMELLTNQEAQQWVSGWRLNADSVLWGGHKVFMVKPEEPFQPVKEATQL [S124I],0.0869,0.066,0.0714,0.0664,0.101,–,0.0735,0.0598,–,0.0852,–,–,–,0.0675,0.0852,0.107,0.0495,–
MGESLFKGPRDYNPISSSICHLTNESDGHTTSLYGIGFGPFIITNKHLFRRNNGTLVVQSLHGVFKVKDTTTLQQHLVDGRDMIIIRMPKDFPPFPQKLKFREPQREERICLVTTNFQTKSMSSMVSDTSCTFPSGDGIFWKHWIQIKDGQCGSPLVSTRDGFIVGIHSASNFTNTNNYFTSVPKNFMELLTNQEAQQWVSGWRLNADSVLWGGHKVFMVKPEEPFQPVKEATQL [T147I],0.0787,0.0638,0.0568,0.0624,–,0.0616,0.0496,0.0762,0.0482,0.062,0.052,0.0774,0.0607,0.061,0.0472,0.0653,0.0776,0.067
MGESLFKGPRDYNPISSSICHLTNESDGHTTSLYGIGFGPFIITNKHLFRRNNGTLVVQSLHGVFKVKDTTTLQQHLVDGRDMIIIRMPKDFPPFPQKLKFREPQREERICLVTTNFQTKSMSSMVSDTSCTFPSGDGIFWKHWIQTKDGQCGSPLVSTRDGFIVGIHSASNFTNTNNYFTSVPKNFMELLTNQEEQQWVSGWRLNADSVLWGGHKVFMVKPEEPFQPVKEATQL [A196E],0.0954,0.0973,0.0598,0.0747,–,–,0.0597,–,0.0534,0.0766,0.0612,0.0704,–,0.0679,0.0586,0.0717,0.101,–
MGESLFKGPRDYNPISSSICHLTNESDGHTTSLYGIGFGPFIITNKHLFRRNNGTLVVQSLHGVFKVKDTTTLQQHLVDGRDMIIIRMPKDFPPFPQKLKFREPQREERICLVTTNFQTKSMSSMVSDTSCTFPSGDGIFWKHWIQTKDGQCGSPGVSTRDGFIVGIHSASNFTNTNNYFTSVPKNFMELLTNQEAQQWVSGWRLNADSVLWGGHKVFMVKPEEPFQPVKEATQL [L156G],0.0787,0.0585,0.042,0.0579,–,0.0643,0.0598,0.0526,0.049,0.0892,0.0489,0.058,–,0.0716,–,0.055,0.0555,–
MGESLFKGPRDYNPISSSICHLTNESDGHTTSLYGIGFGPFIITNKHLFRRNNGTLVVQSLHGVFKVKDTTTLQQHLVDGRDMIIIRMPKDFPPFPQKLHFREPQREERICLVTTNFQTKSMSSMVSDTSCTFPSGDGIFWKHWIQTKDGQCGSPLVSTRDGFIVGIHSASNFTNTNNYFTSVPKNFMELLTNQEAQQWVSGWRLNADSVLWGGHKVFMVKPEEPFQPVKEATQL [K100H],0.0782,0.0479,0.07,0.067,–,0.083,–,0.0535,–,0.0792,0.0486,0.0613,0.0806,–,0.0606,0.0804,0.113,0.0409
MGESLFKGPRDYNPISSSICHLTNESDGHTTSLYGIGFGPFIITNKHLFRRNNGTLVVQSLHGVFKVKDTTTLQQHLVDGRDMIIIRMPKDFPPFPQKLKFREPQREERICLVTTNFQTKSMSSMVSDTSCTFPSGDGIFWKHWIQTKDGQCGSPLVSTRDGFIVGIHSASNFTNTNNYFTSVPKNFEELLTNQEAQQWVSGWRLNADSVLWGGHKVFMVKPEEPFQPVKEATQL [M188E],0.0896,0.0635,0.0587,0.0626,0.143,–,–,0.0719,0.0827,0.0799,0.0649,–,–,0.0639,–,–,0.123,0.075
MGESLFKGPRDYNPISSSICHLTNESDGHTTSLYGIGFGPFIITNKHLFRRNNGTLVVQSLHGVFKVKDTTTLQQHLVDGRDMIIIRMPKDFPPFPQKLKFREPQREMRICLVTTNFQTKSMSSMVSDTSCTFPSGDGIFWKHWIQTKDGQCGSPLVSTRDGFIVGIHSASNFTNTNNYFTSVPKNFMELLTNQEAQQWVSGWRLNADSVLWGGHKVFMVKPEEPFQPVKEATQL [E108M],0.0733,0.0728,0.0708,0.0692,0.0873,–,0.0754,0.0491,0.0671,–,0.0525,0.0576,–,0.0583,0.0538,–,0.121,–
MGESLFKGPRDYNPISSSICHLTNESDGHTTSLYGIGFGPFIITNKHLFRRNNGTLVVQSLHGVFKVKDTTTLQQHLVDGRDMIIIRMPKDFPPFPQKLKFREPQREERICLVTTNFQTKSMSSMVSDTSCTFPSGDGIFWKHWIQTKDGQCGSPLVSTRDGFIVGIHSASNFTNTNNYFTSVPKNFMELLTNQEAQWWVSGWRLNADSVLWGGHKVFMVKPEEPFQPVKEATQL [Q198W],0.0867,0.108,0.0585,0.071,0.115,0.0769,–,0.06,–,–,0.0605,0.0402,0.0644,–,0.0575,–,0.0697,0.0635
MGESLFKGPRDYNPISSSICHLTNESDGHTTSLYGIGFGPFIITNKHLFRRNNGTLVVQSLHGVFKVKDTTTLQQHLVDGRDMIIIRMPKDFPPFPQKLKFREPQREERICLVTTNFQTKSMSSMVSDTSCTFPSGDGIFCKHWIQTKDGQCGSPLVSTRDGFIVGIHSASNFTNTNNYFTSVPKNFMELLTNQEAQQWVSGWRLNADSVLWGGHKVFMVKPEEPFQPVKEATQL [W141C],0.0638,0.0675,0.056,0.0609,0.0616,–,0.0615,–,–,0.0436,0.0739,0.0315,0.0591,0.0588,0.0539,–,0.0736,–
MGESLFKGPRDYNPISSSICHLTNESDGHTTSLYGIGFGPFIITNKHLFRRNNGTLVVQSLHGVFKVKDTTTLQQHLVDGRDMIIIRMPKDFPPFPQKLKFREPQREERICLVTENFQTKSMSSMVSDTSCTFPSGDGIFWKHWIQTKDGQCGSPLVSTRDGFIVGIHSASNFTNTNNYFTSVPKNFMELLTNQEAQQWVSGWRLNADSVLWGGHKVFMVKPEEPFQPVKEATQL [T115E],0.0828,0.0703,–,0.0603,0.14,–,0.0794,–,–,–,0.0366,0.087,–,0.0707,0.0506,–,–,–
MGESLFKGPRDYNPISSSICHLTNESDGHTTSLYGIGFGPFIITNKHLFRRNNGTLVVFSLHGVFKVKDTTTLQQHLVDGRDMIIIRMPKDFPPFPQKLKFREPQREERICLVTTNFQTKSMSSMVSDTSCTFPSGDGIFWKHWIQTKDGQCGSPLVSTRDGFIVGIHSASNFTNTNNYFTSVPKNFMELLTNQEAQQWVSGWRLNADSVLWGGHKVFMVKPEEPFQPVKEATQL [Q59F],0.0801,0.0682,–,0.0702,0.107,–,0.0721,0.0582,0.0659,–,0.0713,0.085,0.0808,0.0548,0.0583,0.0716,–,0.0811

# Reference: the supplement of paper PMC12217912
